Reference: PMC11358511
Results are given in words; binding and its absence hold for the method and conditions named. For some of these results: In cells and extracts the contact can be indirect. Some results given as binding are weak or reduced against the parent protein; the word gives no strength. For some of these results: Sequences can lack the tags named with a protein.

Sequences of proteins named here, by UniProt entry; tags and fusion partners are left off.
UniProt P40763: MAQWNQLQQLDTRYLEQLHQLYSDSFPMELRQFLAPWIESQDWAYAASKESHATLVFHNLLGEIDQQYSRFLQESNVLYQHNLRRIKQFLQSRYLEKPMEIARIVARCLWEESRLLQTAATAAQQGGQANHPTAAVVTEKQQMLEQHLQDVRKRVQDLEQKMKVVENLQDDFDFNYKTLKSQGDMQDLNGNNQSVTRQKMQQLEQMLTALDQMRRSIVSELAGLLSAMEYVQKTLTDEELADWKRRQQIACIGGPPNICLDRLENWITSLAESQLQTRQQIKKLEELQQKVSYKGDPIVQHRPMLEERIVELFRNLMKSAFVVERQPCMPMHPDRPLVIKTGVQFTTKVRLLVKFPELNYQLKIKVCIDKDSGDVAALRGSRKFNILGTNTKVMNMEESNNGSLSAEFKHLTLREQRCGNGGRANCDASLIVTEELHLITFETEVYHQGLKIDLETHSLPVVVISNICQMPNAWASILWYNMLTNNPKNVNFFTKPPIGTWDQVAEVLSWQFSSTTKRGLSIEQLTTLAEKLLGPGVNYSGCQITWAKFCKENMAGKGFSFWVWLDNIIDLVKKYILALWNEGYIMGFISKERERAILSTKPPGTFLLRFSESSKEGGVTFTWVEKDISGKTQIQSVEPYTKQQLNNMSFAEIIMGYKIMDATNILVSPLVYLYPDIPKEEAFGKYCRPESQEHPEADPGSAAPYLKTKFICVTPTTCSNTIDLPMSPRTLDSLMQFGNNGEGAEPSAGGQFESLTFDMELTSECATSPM
UniProt P29350: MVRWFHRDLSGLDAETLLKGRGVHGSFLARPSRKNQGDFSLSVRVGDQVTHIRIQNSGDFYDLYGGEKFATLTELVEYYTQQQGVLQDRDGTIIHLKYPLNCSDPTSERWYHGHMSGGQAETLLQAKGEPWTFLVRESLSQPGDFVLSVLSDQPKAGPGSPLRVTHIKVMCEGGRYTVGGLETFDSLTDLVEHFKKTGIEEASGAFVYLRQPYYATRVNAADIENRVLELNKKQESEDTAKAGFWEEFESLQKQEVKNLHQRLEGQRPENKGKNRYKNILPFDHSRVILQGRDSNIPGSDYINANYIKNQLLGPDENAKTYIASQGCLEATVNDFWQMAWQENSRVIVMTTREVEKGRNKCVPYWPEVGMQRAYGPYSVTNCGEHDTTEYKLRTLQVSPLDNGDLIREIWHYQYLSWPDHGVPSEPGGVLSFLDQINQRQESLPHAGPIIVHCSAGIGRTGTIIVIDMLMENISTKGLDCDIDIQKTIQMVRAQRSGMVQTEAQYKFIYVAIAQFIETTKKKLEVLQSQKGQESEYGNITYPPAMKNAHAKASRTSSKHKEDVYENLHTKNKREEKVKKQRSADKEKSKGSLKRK

Legend:
[1] = molecular target: T1, Flag-ETHE1 (ethylmalonic encephalopathy protein 1) (human) (UniProt O95571); experiment: co-IP; HEK293T cells transfected with Flag-ETHE1 only; whole cell lysate; IP with anti-Flag beads; immunoblot for TC45, SHP1 and SHP2
T1 sequence: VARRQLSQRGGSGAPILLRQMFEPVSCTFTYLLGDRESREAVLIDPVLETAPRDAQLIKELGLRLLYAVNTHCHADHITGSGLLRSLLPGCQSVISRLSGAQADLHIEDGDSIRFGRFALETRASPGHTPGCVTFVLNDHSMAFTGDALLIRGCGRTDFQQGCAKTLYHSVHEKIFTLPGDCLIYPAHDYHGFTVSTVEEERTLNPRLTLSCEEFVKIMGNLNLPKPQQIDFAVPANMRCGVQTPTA

HA-STAT3 = HA-STAT3 (UniProt P40763); experiment: co-IP; HEK293T cells co-transfected with tagged plasmids (HA-STAT3, Flag-ETHE1, Myc-TC45); whole cell lysates in NP40 buffer; IP with anti-HA, anti-Flag or anti-c-Myc magnetic beads overnight at 4 °C; five washes with lysis buffer; immunoblot; for STAT3 with TC45 with vector or Flag-ETHE1 co-transfected
[2] = molecular target: endogenous STAT3 (human (endogenous in SW48 and SW480)) (UniProt P40763); experiment: co-IP; endogenous proteins; whole cell lysates of SW48 (and SW480) cells; IP with anti-STAT3, anti-ETHE1 or anti-TC45 antibody or IgG on Protein A/G beads overnight at 4 °C; immunoblot
Flag-STAT3 protein = Flag-STAT3 protein (UniProt P40763); experiment: pull-down; in vitro binding assay; Flag-STAT3 incubated with His-ETHE1 alone or with His-ETHE1 and His-TC45 together, rotated with anti-Flag magnetic beads overnight at 4 °C; five washes with lysis buffer; immunoblot; both purified
[3] = molecular target: T2, endogenous ETHE1 (human (endogenous in SW48)) (UniProt O95571); experiment: co-IP; endogenous proteins; whole cell lysates of SW48 (and SW480) cells; IP with anti-STAT3, anti-ETHE1 or anti-TC45 antibody or IgG on Protein A/G beads overnight at 4 °C; immunoblot
T2 sequence: T1 sequence

[4] = molecular target: T1, Flag-ETHE1 (ethylmalonic encephalopathy protein 1) (human); experiment: co-IP; HEK293T cells co-transfected with tagged plasmids (HA-STAT3, Flag-ETHE1, Myc-TC45); whole cell lysates in NP40 buffer; IP with anti-HA, anti-Flag or anti-c-Myc magnetic beads overnight at 4 °C; five washes with lysis buffer; immunoblot; for STAT3 with TC45 with vector or Flag-ETHE1 co-transfected

“SHP1 (from UniProt P29350 1-595) (enzyme)” was tested, and the binding [1] was “no binding”.

B1: Flag-ETHE1 (ethylmalonic encephalopathy protein 1) (protein, UniProt O95571 8-254)
chain: T1 sequence
With B1 the binding (HA-STAT3) was “binds”.

B2: endogenous ETHE1 (protein, UniProt O95571 8-254)
chain: T1 sequence
B2 was tested, and the binding [2] was “binds”.

B3: His-ETHE1 protein (protein, UniProt O95571 8-254)
chain: T1 sequence
For B3, the binding (Flag-STAT3 protein) was “binds”.

B4: endogenous TC45 (T cell protein tyrosine phosphatase) (enzyme, UniProt P17706-2 1-387)
chain: MPTTIEREFEELDTQRRWQPLYLEIRNESHDYPHRVAKFPENRNRNRYRDVSPYDHSRVKLQNAENDYINASLVDIEEAQRSYILTQGPLPNTCCHFWLMVWQQKTKAVVMLNRIVEKESVKCAQYWPTDDQEMLFKETGFSVKLLSEDVKSYYTVHLLQLENINSGETRTISHFHYTTWPDFGVPESPASFLNFLFKVRESGSLNPDHGPAVIHCSAGIGRSGTFSLVDTCLVLMEKGDDINIKQVLLNMRKYRMGLIQTPDQLRFSYMAIIEGAKCIKGDSSIQKRWKELSKEDLSPAFDHSPNKIMTEKYNGNRIGLEEEKLTGDRCTGLSSKMQDTMEENSESALRKRIREDRKATTAQKVQQMKQRLNENERKRKRPRLTDT
For B4, the binding [3] was “binds”, the binding [2] was “binds” and the binding [1] was “binds”.

B5: Myc-TC45 (enzyme, UniProt P17706-2 1-387)
chain: B4 chain
With B5 the binding (HA-STAT3) was “binds” and the binding [4] was “binds”.

B6: recombinant TC45 protein with His tag (enzyme, UniProt P17706-2 1-387)
chain: B4 chain
In the case of B6, the binding (Flag-STAT3 protein) is reported as “binds”.
